Several values for one entry are separate records, joined by “and”; a condition that tells them apart may be missing. Equal values may be shown once. Where a name gives a salt, the structure may show the parent alone. Read-outs that look alike come from different tables or passages of the source.
Experiments:
[1] = molecular target: T1, recombinant wild-type human CYP26A1 enzyme (Homo sapiens, UniProt O43174); assay: biochemical; conditions: for Emax: read-out: Maximum response
T1 sequence (O43174 1-497): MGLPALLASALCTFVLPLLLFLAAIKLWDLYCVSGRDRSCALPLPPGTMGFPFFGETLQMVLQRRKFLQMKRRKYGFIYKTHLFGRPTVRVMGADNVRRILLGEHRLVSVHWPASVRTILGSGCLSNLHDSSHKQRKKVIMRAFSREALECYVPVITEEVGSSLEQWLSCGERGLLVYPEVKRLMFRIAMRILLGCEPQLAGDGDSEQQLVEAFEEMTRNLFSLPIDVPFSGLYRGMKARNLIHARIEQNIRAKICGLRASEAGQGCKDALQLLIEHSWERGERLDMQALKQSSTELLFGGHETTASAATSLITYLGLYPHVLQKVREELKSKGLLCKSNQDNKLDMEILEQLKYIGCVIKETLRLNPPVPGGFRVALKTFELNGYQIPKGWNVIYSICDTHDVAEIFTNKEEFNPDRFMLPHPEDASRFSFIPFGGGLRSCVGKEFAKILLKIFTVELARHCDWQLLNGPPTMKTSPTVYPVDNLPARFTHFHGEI

[2] = molecular target: T1, recombinant wild-type human CYP26A1 enzyme; conditions: for fold difference in IC50 between atRA and its isomer: relative to atRA
[3] = IC50 (Figure 3D, atRA and its isomers), 0.1% BSA + 0.025% CHAPS
[4] = IC50, mean ± SD from three experiments, 2 μM luciferin-BE, active = maximum response greater than 40%

| SMILES | IC50 [1, 4] | Emax [1] | further results |
| --- | --- | --- | --- |
| CC1=C(/C=C/C(C)=C\C=C\C(C)=C\C(=O)O)C(C)(C)CCC1 [9-cis-RA, 9-cis-retinoic acid] |  |  | IC50 [1, 3]: 2.8 µM; fold difference in IC50 between atRA and its isomer [2]: 2 fold |
| CC1=C(/C=C/C(C)=C/C=C/C(C)=C\C(=O)O)C(C)(C)CCC1 [13-cis-RA, 13-cis-retinoic acid] |  |  | IC50 [1, 3]: 6.1 µM; fold difference in IC50 between atRA and its isomer [2]: 6 fold |
| CC1(C)CCC(C)(C)c2cc(C(=O)Nc3ccc(C(=O)O)cc3)ccc21 [AM580] | 4.13 ± 0.21 µM | -107% |  |
| COc1ccc(-c2ccc3cc(C(=O)O)ccc3c2)cc1C12CC3CC(CC(C3)C1)C2 [Adapalene] | 0.1 µM | -101% |  |
| C=C(c1ccc(C(=O)O)cc1)c1cc2c(cc1C)C(C)(C)CCC2(C)C [Bexarotene] | 5.3 ± 0.6 µM | -110% |  |
| CC(C)N1C(=O)N(c2ccccc2)CS/C1=N\C(C)(C)C [Buprofezin] | 78.7 ± 38.6 µM | -75.7% |  |
| O=C(O)c1ccc2cc(-c3ccc(O)c(C45CC6CC(CC(C6)C4)C5)c3)ccc2c1 [CD437] | 0.12 ± 0.01 µM | -102% |  |
| Cn1c(=O)c2c(ncn2C)n(C)c1=O [Caffeine] |  |  | CYP26A1 inhibition, result in words [2]: no effect |
| N#Cc1c(Cl)c(Cl)c(Cl)c(C#N)c1Cl [Chlorothalonil] |  | -55.3% | CYP26A1 inhibition, result in words [2]: novel CYP26A1 inhibitors |
| CCCCCCCCCC=O [Decanal] |  |  | CYP26A1 inhibition, result in words [2]: no effect; IC50 ([2]; mean ± SD from three experiments, 2 μM luciferin-BE, active = maximum response greater than 40%): Inactive |
| CCOC(=O)/C=C(C)/C=C/C=C(C)/C=C/c1c(C)cc(OC)c(C)c1C [Etretinate] |  |  | IC50 [2]: Inactive |
| Cc1nn(C)c(Oc2ccccc2)c1C=NOCc1ccc(C(=O)OC(C)(C)C)cc1 [Fenpyroximate (Z,E)] | 34.7 ± 1.62 µM |  |  |
| OC(Cn1cncn1)(Cn1cncn1)c1ccc(F)cc1F [Fluconazole] | 20.1 ± 2.85 µM | -100% |  |
| O=C(O)Cc1c[nH]c2ccccc12 [Indole-3-acetic acid] | 19.1 ± 2.35 µM | -85% |  |
| Clc1cccc(C(c2ccc3[nH]cnc3c2)n2ccnc2)c1 (stereo not shown) [Liarozole dihydrochloride] |  | -103% |  |
| O=C(O)C(=O)O [Oxalic acid] |  |  | CYP26A1 inhibition, result in words [2]: no effect; IC50 [2]: Inactive |
| C#CCOS(=O)OC1CCCCC1Oc1ccc(C(C)(C)C)cc1 (stereo not shown) [Propargite] | 38.2 ± 14.2 µM |  |  |
| CCC(CC)C(c1ccc(Nc2nc3ccccc3s2)cc1)n1cncn1 (stereo not shown) [R115866/Talarozole, Talarozole] | 0.05 ± 0.004 µM | -102% | times less potent in the luciferin-BE assay compared to atRA probe substrate assay ([2]; 50 vs. 5 nM): 10 times |
| O=C(c1ccc(OCCN2CCCCC2)cc1)c1c(-c2ccc(O)cc2)sc2cc(O)ccc12 [Raloxifene hydrochloride] |  | -102% |  |
| CC1(C)CCC(C)(C)c2cc(C3(c4ccc(C(=O)O)cc4)OCCO3)ccc21 [SR11237] | 6 ± 0.16 µM | -108% |  |
| C/C(=C\c1ccc(C(=O)O)cc1)c1ccc2c(c1)C(C)(C)CCC2(C)C [TTNPB/Arotinoid acid, Arotinoid acid] | 10.7 ± 1 µM | -109% |  |
| CC1(C)CCC(C)(C)c2cc(NC(=O)c3ccc(C(=O)O)cc3)ccc21 [Tamibarotene/AM80, Tamibarotene] | 4.5 ± 0.11 µM | -106% |  |
| CCOC(=O)c1ccc(C#Cc2ccc3c(c2)C(C)(C)CCS3)nc1 [Tazarotene] | 54.1 ± 6.1 µM | -71.1% |  |
| CC1(C)CCSc2ccc(C#Cc3ccc(C(=O)O)cn3)cc21 [Tazarotenic Acid] | 2.4 µM and 2.37 µM | -103% |  |
| CC(C)(C)C(=O)C(Oc1ccc(Cl)cc1)n1cncn1 (stereo not shown) [Triadimefon] | 1.11 ± 0.05 µM | -102% | IC50 ([1]; IC50 (Figure 3A plot key), 0.1% BSA + 0.025% CHAPS): 0.7 µM; IC50 ([1]; IC50 (Figure 3B plot key), 0.1% BSA + 0.01% Triton X-100): 6 µM; IC50 ([1]; IC50 (Figure 3C plot key), 0.1% BSA + 0.01% Tween-20): 4.4 µM |
| CCCOC/C(=N\c1ccc(Cl)cc1C(F)(F)F)n1ccnc1 [Triflumizole] | 9.53 ± 0.71 µM | -110% |  |
| CC1=C(/C=C/C(C)=C/C=C/C(C)=C/C(=O)O)C(C)(C)CCC1 [atRA, all-trans retinoic acid] |  |  | IC50 [1, 3]: 1.1 µM; Hill slope of inhibition curve ([2]; best fit of atRA inhibition curve): −1 |

Reference: PMC11338008, “Development and validation of CYP26A1 inhibition assay for high-throughput screening” (Biotechnology journal, 2024)
